Consider 167 variants from the RNAGym collection of RNA variant scans (doi:10.7554/elife.90254).

Read counts are not given, so values of variants with three or more changes are uncertain.

B1: LINE1-mini (parent)
chain: GGCAGAGCUCAACACAGCGUGGCAAAGUGGCUGUGGCUAGACUGCC

The data set covers variants of B1. The experiment in a line: self-cleavage, relative activity (ratio to wild type); higher = more cleavage; in vitro, sequencing; the parent is a self-cleaving ribozyme.
For the variant G1U U34G G44C, the self-cleavage stood at 0.07.

G1C G21U G30U: the self-cleavage was determined as 0.5.

On to G1U G2C A12C G33U, for which the self-cleavage turned out to be 0.02.

For G1U C10A A39C, the self-cleavage is 0.01.

In the case of G1U A4C C37A, the self-cleavage stood at 0.03.

In the case of G1C G21C G29A U32C G44U C46U, the self-cleavage came out at 0.02.

With G1U C3U A4G C10G A11U, the self-cleavage amounted to 0.03.

Consider G1U G21C G29A C46G, for which the self-cleavage was determined as 0.24.

For the variant G1C G7U C10G A11C U20A A26G C45U, the self-cleavage was determined as 0.

Turning to G1C G21C G30U, the self-cleavage was 0.11.

As to G1U G7A C8A A16C, the self-cleavage was found to be 0.06.

Turning to G1C G27A C37U C42A, the self-cleavage is 0.04.

G1U G21C G22A U32A C46A: the self-cleavage was 0.35.

For G1U C8U A12C G36A, the self-cleavage was 0.05.

With G1U C23U U38C, the self-cleavage was 1.32.

Take G1U C23U U38G: the self-cleavage stood at 0.02.

G1C U28A G29U: the self-cleavage was found to be 0.06.

With G1U C13A A24G C46A, the self-cleavage worked out at 0.04.

As for G1C G22U G27U C37G, the self-cleavage was 0.03.

As to G1C U9G C15U, the self-cleavage was found to be 0.04.

G1U G19C A26C G33C: the self-cleavage came to 0.03.

In the case of G1U C18U G19C G29A, the self-cleavage turned out to be 0.63.

As for G1C G7U C8A U38C C46U, the self-cleavage stood at 0.05.

G1U G19C A25C G29U C45U: the self-cleavage turned out to be 0.09.

On to G1U G19C U38C U43A G44U, for which the self-cleavage was 0.01.

Turning to G1C U9A U34A C37U A41G, the self-cleavage came out at 0.

For G1U C10G A25G C45A C46U, the self-cleavage was found to be 0.01.

As to G1U G7A C13A, the self-cleavage was determined as 0.08.

With G1U G2C G17A G19C, the self-cleavage was 0.05.

Regarding G1C G19A U28G G36A A39G, the self-cleavage was 0.02.

On to G1U C8A C15A, for which the self-cleavage is 0.13.

For G1U G2C U20A A41U, the self-cleavage stood at 0.05.

With G1U C8U G29U C31G, the self-cleavage stood at 0.06.

Regarding G1U C8G G40U, the self-cleavage amounted to 0.02.

As to G1C G7U G17U, the self-cleavage is 0.12.

G1U G5U A6C A14U U32G: the self-cleavage is 0.03.

Regarding G1C G21U A24U, the self-cleavage stood at 0.3.

As to G1C G7A C23A, the self-cleavage was 0.06.

G1C G7A A25C U34C G40U: the self-cleavage worked out at 0.05.

With G1U C10A C46A, the self-cleavage came out at 0.06.

With G2A A4G C13U A16C C23A G36A, the self-cleavage amounted to 2.08.

Regarding G1C G21U G29U C42A, the self-cleavage was 0.01.

With G1U G17C A24C G30C C31U, the self-cleavage was found to be 0.09.

In the case of G1U C8A U9G C13U G17A G40U, the self-cleavage stood at 0.06.

As to G1U A12U C18G G27C G30C G44U, the self-cleavage turned out to be 0.01.

With G2A A4C A6G C13U U20A G29A C31A A39G, the self-cleavage turned out to be 0.02.

Take G1U C15A U34A: the self-cleavage was found to be 0.07.

With G1U G5C G29C, the self-cleavage is 0.03.

Consider G1U G2C G19C U43A, for which the self-cleavage is 0.01.

For the variant G1U A6C A26C G33A, the self-cleavage turned out to be 0.03.

As to G1U G27U U43C, the self-cleavage came out at 0.01.

G1U A4C U38A: the self-cleavage is 0.03.

On to G1U C10G A24U U34G C42G, for which the self-cleavage worked out at 0.

On to G1U A16C G21A G22U U38A, for which the self-cleavage was found to be 0.02.

As to G1U A14G G17A C45A, the self-cleavage worked out at 0.1.

Turning to G1U C18G C46U, the self-cleavage turned out to be 0.7.

Regarding G2A A4G C8U G19C G22C C23G C37U, the self-cleavage amounted to 0.01.

Consider G1C U38C G44A, for which the self-cleavage worked out at 0.02.

Turning to G1U G2A A11G G22A C23A A24U U32A G40A, the self-cleavage was 0.01.

Take G1U A12G C42A: the self-cleavage came out at 0.02.

Take G1U A6U A14C A25C G44A: the self-cleavage came out at 0.02.

On to G1U C8U G27C, for which the self-cleavage is 0.01.

On to G1C G21A G40U, for which the self-cleavage turned out to be 0.01.

Consider G1U A16C C18U C31U U38A C46A, for which the self-cleavage amounted to 0.01.

On to G1U C10U C18G, for which the self-cleavage is 0.02.

Take G1C G17C A25C: the self-cleavage came out at 0.08.

Turning to G1U A12G A25U A26C C31A U38C A41G U43C, the self-cleavage was determined as 0.02.

Regarding G1U U9C U38G G40U, the self-cleavage was determined as 0.02.

Consider G1U C15G C18U C23U G33C C46G, for which the self-cleavage was found to be 0.42.

On to G1U A4G U9A A26G, for which the self-cleavage amounted to 0.01.

Regarding G1U C8A A14U U20A, the self-cleavage stood at 0.04.

In the case of G1U G7C C13U, the self-cleavage came out at 0.07.

Turning to G1U C3A A11C C15A G35U, the self-cleavage was determined as 0.04.

Turning to G1U C18U C45G, the self-cleavage stood at 0.18.

Regarding G1U A6C G17U C23A, the self-cleavage was 0.04.

G1U A25G U28A U32C: the self-cleavage was 0.01.

For G1U A14C G17C A24G U43G, the self-cleavage turned out to be 0.

G1C U43A G44C: the self-cleavage worked out at 0.

Take G1C U20G C45G: the self-cleavage came to 0.01.

With G1U G2A U38A, the self-cleavage was 0.15.

Turning to G1C G33U U34A, the self-cleavage was 0.01.

As for G1U A4U A25U, the self-cleavage turned out to be 0.18.

On to G1U U20C A24G G27U C31A U38A, for which the self-cleavage was found to be 0.03.

Regarding G1U C15U G17A G22U G44C, the self-cleavage came out at 0.11.

With G1U G22U U38A, the self-cleavage turned out to be 0.15.

On to G1U C3G A14C C18U U38G, for which the self-cleavage was determined as 0.01.

G1U A24U G40U C46U: the self-cleavage was 0.07.

For the variant G1U C3A G22U, the self-cleavage is 0.2.

As for G1U U9C G44C, the self-cleavage was determined as 0.02.

With G1U G27A U28C A39U C45A, the self-cleavage was found to be 0.13.

As to G1U C3G C13A C37A C45U, the self-cleavage amounted to 0.25.

Regarding G1U C3A C13G C37U G44C, the self-cleavage stood at 0.17.

On to G1C U34A U38A, for which the self-cleavage worked out at 0.01.

Consider G1U A14C U34A, for which the self-cleavage was determined as 0.02.

In the case of G1U G2A A11G C15A, the self-cleavage came to 0.01.

Regarding G1U A41C C42G, the self-cleavage came out at 0.03.

G1U G7U A11U A14G U32G: the self-cleavage was determined as 0.02.

For the variant G1U A6U A11U A16C G30A G35A, the self-cleavage was found to be 0.

For G1U G7U G22A G29A, the self-cleavage stood at 0.02.

Regarding G1U G19U A24C U28C G29U, the self-cleavage came to 0.18.

As to G1U G2A C18U C31A C37G, the self-cleavage was 0.1.

In the case of G1U A39C G40A, the self-cleavage was found to be 0.02.

For the variant G1U C3A G7U A16C C18G G27U G30U C31U G35A, the self-cleavage was found to be 0.22.

In the case of G1U A4U G5A C10G A41C, the self-cleavage worked out at 0.02.

Turning to G1U G17A U20C C45U, the self-cleavage came out at 0.29.

G1U A14G A24U: the self-cleavage was 0.1.

Consider G1U G27U A39U, for which the self-cleavage came to 0.14.

As for G1U G2A C15U G44C, the self-cleavage was determined as 0.1.

Turning to G2A A4C C15U C37U, the self-cleavage came out at 0.14.

Turning to G1U U9C U38A A39G, the self-cleavage was 0.

For G1C G29A G40C, the self-cleavage amounted to 0.03.

Consider G1U A16C C23G, for which the self-cleavage was determined as 0.06.

G1C G27A G33A: the self-cleavage amounted to 0.04.

Turning to G1U A26C A39C G44C, the self-cleavage stood at 0.

As for G1C U9A C10U A12C G40A, the self-cleavage is 0.01.

Take G1U G5A G7C A12U A14G C18G: the self-cleavage stood at 0.03.

For G1U C15U U32C, the self-cleavage was 0.08.

Consider G1U C10A U28C, for which the self-cleavage is 0.

Regarding G1C G7A G19C C23G U32A, the self-cleavage came out at 0.05.

On to G1U U20G C37A C42U, for which the self-cleavage stood at 0.01.

In the case of G1U C8G C15A A26G, the self-cleavage is 0.06.

Regarding G1U C10A G17U G22U C31G, the self-cleavage was determined as 0.02.

As for G1U U9C U28G, the self-cleavage stood at 0.01.

Take G1U A4U C15A A26U U34A G35U G36C: the self-cleavage came out at 0.04.

In the case of G1U G7A A12G G30C U38G G40A, the self-cleavage amounted to 0.03.

Take G1U C3U C42U: the self-cleavage is 0.05.

As for G1U U20A C23A A24G G33C A39U C45G, the self-cleavage is 0.04.

As to G1U C15A G21A, the self-cleavage was 0.01.

In the case of G1C G7C U9G, the self-cleavage was 0.02.

As for G1U C15U C18G C23G U34A U43C, the self-cleavage amounted to 0.01.

As to G1U G19C A39C, the self-cleavage was 0.

On to G1U A12G C15U G27A C37G G40U, for which the self-cleavage came out at 0.13.

In the case of G1C G21A C42U, the self-cleavage stood at 0.

Take G1U A14G G33C A41C U43C: the self-cleavage stood at 0.01.

Turning to G1U C3A A4G U9G C31A A41U, the self-cleavage stood at 0.01.

As to G1U U34G G40A, the self-cleavage stood at 0.02.

As for G1C G7A C10G C15G A24G U28A C37U, the self-cleavage turned out to be 0.

Regarding G1C G21C U32G, the self-cleavage turned out to be 0.01.

Take G1U C3U C10U U28C G44U: the self-cleavage amounted to 0.24.

For G1U A11G U20C C46A, the self-cleavage was 0.01.

As to G1U C8G U9C C18G A24U A26G G29U, the self-cleavage was found to be 0.01.

Turning to G1U G35U C37G, the self-cleavage came out at 0.04.

Take G1C G7C A11G U38A C42A: the self-cleavage was determined as 0.

Take G1U C23A C37U: the self-cleavage came to 0.04.

Take G1U A25G A26C C31A G33A: the self-cleavage is 0.03.

Turning to G1U A4C A6G U9G C18G C23G, the self-cleavage amounted to 0.05.

As for G1U A14C G17U G19A U20C, the self-cleavage is 0.

For G1U C13U G29U U34A, the self-cleavage was 0.09.

As to G1U A14G A16G A24U, the self-cleavage was found to be 0.11.

With G1U C10U A14C G29U C31U, the self-cleavage is 0.02.

For the variant G1U C10A C31A C42U, the self-cleavage amounted to 0.01.

Consider G1U C8U C13A C15G C31U G35U, for which the self-cleavage was found to be 0.14.

In the case of G1C G19U C46A, the self-cleavage is 0.16.

For the variant G1C G7A C8A G19A U34C C45U, the self-cleavage came to 0.12.

On to G1U A6G U38C, for which the self-cleavage amounted to 0.02.

For G1C G7C U43C C46A, the self-cleavage stood at 0.03.

In the case of G1C G7C U28A G30C C31U C37A, the self-cleavage was found to be 0.02.

For G1U U20G G33U U34G A39U, the self-cleavage stood at 0.02.

For G1C G21U A25G, the self-cleavage was 0.01.

With G1U C13A C18U A26U C42U, the self-cleavage came out at 0.27.

On to G1U C8G G29C G36U, for which the self-cleavage is 0.01.

For the variant G1U U9G G17C C18U G40C, the self-cleavage was 0.03.

Turning to G1U G22U G33U C37A, the self-cleavage came to 0.06.

On to G1U G7C A14G A39G U43C, for which the self-cleavage was 0.03.

With G1C G21U G27A, the self-cleavage worked out at 0.13.

As to G1C G7C G22C U28A, the self-cleavage was found to be 0.

Take G1C U20G G21C: the self-cleavage turned out to be 0.09.
